From PubChem BioAssay (NCI)
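Grown in 96-well plates, cells were treated for 48 hours with each compound at five concentrations. Insufficient inhibition: endpoint recorded as highest concentration tested. GI50: concentration for 50% inhibition of growth. TGI marks complete inhibition of growth.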

Test system: NCI-H322M lung
Assay: NCI anticancer screen, dose series, 48 h

| Compound | TGI | GI50 |
| --- | --- | --- |
| CCOC(=O)c1sc2[n+](c1C)C(=O)/C(=C/c1ccc([N+](=O)[O-])cc1)S2 | > 100 µM | – |
| COc1nc(N)nc2c1ncn2C1OC(CO)C(O)C1O (stereo not drawn) | > 5000 µM | 3890 µM |
| CCOC(=O)CC1(c2cccc3ccccc23)OC(=O)c2ccccc21 (stereo not drawn) | > 100 µM | – |
| CC(=O)N=C1N(/C=C2\C(=O)Oc3ccccc3C2=O)C(=O)/C(=C/c2ccc(Cl)cc2Cl)N1C | > 100 µM | – |
| Cc1ccc2oc(=O)c(C(=O)Nc3nc(C45CC6CC(CC(C6)C4)C5)cs3)cc2c1 | > 100 µM | – |
| O=C(N/N=C(/COc1ccc([N+](=O)[O-])cc1)N=Cc1ccncc1)c1ccncc1 | > 100 µM | – |
| CCCCCCCCCCCCOCCCOP(=O)([O-])OCC[N+](C)(C)C | > 100 µM | – |
